Several values for one entry are separate records, joined by “and”; a condition that tells them apart may be missing. Equal values may be shown once.
Columns and labels:
[1] = target: T1, PF-7802-labelled proteins in ARPE-19 cells (Homo sapiens, UniProt P11166); settings: for Median SILAC Ratio (Heavy/Light): SLC2A1 Solute carrier family 2, facilitated glucose transporter member 1 (P11166)
T1 sequence (P11166 1-492): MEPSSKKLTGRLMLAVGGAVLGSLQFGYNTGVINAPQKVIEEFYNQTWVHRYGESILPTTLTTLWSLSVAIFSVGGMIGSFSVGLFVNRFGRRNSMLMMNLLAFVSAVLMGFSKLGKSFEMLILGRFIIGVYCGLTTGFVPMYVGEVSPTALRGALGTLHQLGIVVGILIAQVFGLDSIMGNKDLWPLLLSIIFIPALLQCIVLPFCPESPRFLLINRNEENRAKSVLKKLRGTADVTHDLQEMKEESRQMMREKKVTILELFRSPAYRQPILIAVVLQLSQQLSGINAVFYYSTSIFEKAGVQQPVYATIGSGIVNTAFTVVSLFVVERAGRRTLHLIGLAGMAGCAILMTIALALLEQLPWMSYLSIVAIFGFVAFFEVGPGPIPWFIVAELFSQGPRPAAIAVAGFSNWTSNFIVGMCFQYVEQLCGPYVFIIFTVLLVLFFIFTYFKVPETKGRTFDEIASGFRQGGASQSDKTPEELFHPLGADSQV

[2] = target: PF-7802-labelled proteins in ARPE-19 cells (Homo sapiens, UniProt P31930); settings: UQCRC1 Cytochrome b-c1 complex subunit 1, mitochondrial (P31930)
[3] = target: T2, PF-7802-labelled proteins in ARPE-19 cells (Homo sapiens, UniProt P24752); settings: for Median SILAC Ratio (Heavy/Light): protein ACAT1 Acetyl-CoA acetyltransferase, mitochondrial (P24752)
T2 sequence (P24752 34-427): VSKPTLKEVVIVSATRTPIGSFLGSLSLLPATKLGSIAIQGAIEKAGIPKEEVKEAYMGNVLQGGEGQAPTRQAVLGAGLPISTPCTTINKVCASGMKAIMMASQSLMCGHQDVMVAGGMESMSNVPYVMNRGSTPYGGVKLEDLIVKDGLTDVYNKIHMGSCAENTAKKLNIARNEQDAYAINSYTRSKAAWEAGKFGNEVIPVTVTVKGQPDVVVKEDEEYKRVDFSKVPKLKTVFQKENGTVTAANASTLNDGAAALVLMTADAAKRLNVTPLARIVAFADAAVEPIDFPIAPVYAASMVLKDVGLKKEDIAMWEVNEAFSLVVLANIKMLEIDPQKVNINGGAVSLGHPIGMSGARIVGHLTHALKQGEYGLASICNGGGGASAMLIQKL

[4] = target: PF-7802-labelled proteins in ARPE-19 cells (Homo sapiens, UniProt Q13740); settings: protein ALCAM CD166 antigen (Q13740)
[5] = target: T3, PF-7802-labelled proteins in ARPE-19 cells (Homo sapiens, UniProt Q99798); settings: for Median SILAC Ratio (Heavy/Light): protein ACO2 Aconitate hydratase, mitochondrial (Q99798)
T3 sequence (Q99798 28-780): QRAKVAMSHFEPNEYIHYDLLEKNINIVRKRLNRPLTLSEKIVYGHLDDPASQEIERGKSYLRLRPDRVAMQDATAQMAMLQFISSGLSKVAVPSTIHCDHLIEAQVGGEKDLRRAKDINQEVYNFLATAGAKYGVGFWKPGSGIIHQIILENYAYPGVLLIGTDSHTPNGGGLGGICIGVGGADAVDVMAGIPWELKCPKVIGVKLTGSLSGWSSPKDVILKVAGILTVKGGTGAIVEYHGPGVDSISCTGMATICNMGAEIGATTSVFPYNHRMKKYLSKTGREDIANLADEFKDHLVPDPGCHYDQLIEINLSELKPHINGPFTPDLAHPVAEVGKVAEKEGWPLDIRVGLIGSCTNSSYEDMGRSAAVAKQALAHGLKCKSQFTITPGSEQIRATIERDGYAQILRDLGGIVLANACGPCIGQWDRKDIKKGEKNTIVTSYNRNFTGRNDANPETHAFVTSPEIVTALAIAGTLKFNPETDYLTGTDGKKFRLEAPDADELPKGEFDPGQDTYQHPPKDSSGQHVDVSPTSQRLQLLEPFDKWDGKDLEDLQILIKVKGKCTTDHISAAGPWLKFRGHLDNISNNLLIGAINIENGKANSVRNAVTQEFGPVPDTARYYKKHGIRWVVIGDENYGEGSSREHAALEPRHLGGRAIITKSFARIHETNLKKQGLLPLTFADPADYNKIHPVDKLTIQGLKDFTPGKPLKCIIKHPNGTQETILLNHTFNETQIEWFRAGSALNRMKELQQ

[6] = target: PF-7802-labelled proteins in ARPE-19 cells (Homo sapiens, UniProt P13010); settings: protein XRCC5 X-ray repair cross-complementing protein 5 (P13010); replicate R1
Sequence of UniProt P13010 (P13010 whole entry): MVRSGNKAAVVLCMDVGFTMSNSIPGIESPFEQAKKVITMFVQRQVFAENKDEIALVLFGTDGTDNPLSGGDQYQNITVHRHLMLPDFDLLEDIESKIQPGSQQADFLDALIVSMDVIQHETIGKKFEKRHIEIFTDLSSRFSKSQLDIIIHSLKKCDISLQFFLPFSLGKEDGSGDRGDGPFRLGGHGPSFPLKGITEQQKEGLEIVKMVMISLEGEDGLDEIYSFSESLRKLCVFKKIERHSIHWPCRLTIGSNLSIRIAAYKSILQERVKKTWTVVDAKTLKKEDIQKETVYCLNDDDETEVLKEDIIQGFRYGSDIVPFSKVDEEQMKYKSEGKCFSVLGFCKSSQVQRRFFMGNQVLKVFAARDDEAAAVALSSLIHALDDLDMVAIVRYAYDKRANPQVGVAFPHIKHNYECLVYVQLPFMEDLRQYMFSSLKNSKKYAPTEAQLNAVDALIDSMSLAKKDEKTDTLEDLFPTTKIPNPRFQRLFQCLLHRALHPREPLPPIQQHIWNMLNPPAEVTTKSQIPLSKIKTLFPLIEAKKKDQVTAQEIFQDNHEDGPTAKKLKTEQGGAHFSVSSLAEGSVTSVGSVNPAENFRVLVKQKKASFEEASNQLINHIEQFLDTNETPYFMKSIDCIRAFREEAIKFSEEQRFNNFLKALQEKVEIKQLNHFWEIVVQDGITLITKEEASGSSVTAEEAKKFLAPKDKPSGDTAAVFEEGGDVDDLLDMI

[7] = target: PF-7802-labelled proteins in ARPE-19 cells (Homo sapiens, UniProt Q13813); settings: SPTAN1 Spectrin alpha chain, non-erythrocytic 1 (Q13813)
Sequence of UniProt Q13813 (Q13813 whole entry): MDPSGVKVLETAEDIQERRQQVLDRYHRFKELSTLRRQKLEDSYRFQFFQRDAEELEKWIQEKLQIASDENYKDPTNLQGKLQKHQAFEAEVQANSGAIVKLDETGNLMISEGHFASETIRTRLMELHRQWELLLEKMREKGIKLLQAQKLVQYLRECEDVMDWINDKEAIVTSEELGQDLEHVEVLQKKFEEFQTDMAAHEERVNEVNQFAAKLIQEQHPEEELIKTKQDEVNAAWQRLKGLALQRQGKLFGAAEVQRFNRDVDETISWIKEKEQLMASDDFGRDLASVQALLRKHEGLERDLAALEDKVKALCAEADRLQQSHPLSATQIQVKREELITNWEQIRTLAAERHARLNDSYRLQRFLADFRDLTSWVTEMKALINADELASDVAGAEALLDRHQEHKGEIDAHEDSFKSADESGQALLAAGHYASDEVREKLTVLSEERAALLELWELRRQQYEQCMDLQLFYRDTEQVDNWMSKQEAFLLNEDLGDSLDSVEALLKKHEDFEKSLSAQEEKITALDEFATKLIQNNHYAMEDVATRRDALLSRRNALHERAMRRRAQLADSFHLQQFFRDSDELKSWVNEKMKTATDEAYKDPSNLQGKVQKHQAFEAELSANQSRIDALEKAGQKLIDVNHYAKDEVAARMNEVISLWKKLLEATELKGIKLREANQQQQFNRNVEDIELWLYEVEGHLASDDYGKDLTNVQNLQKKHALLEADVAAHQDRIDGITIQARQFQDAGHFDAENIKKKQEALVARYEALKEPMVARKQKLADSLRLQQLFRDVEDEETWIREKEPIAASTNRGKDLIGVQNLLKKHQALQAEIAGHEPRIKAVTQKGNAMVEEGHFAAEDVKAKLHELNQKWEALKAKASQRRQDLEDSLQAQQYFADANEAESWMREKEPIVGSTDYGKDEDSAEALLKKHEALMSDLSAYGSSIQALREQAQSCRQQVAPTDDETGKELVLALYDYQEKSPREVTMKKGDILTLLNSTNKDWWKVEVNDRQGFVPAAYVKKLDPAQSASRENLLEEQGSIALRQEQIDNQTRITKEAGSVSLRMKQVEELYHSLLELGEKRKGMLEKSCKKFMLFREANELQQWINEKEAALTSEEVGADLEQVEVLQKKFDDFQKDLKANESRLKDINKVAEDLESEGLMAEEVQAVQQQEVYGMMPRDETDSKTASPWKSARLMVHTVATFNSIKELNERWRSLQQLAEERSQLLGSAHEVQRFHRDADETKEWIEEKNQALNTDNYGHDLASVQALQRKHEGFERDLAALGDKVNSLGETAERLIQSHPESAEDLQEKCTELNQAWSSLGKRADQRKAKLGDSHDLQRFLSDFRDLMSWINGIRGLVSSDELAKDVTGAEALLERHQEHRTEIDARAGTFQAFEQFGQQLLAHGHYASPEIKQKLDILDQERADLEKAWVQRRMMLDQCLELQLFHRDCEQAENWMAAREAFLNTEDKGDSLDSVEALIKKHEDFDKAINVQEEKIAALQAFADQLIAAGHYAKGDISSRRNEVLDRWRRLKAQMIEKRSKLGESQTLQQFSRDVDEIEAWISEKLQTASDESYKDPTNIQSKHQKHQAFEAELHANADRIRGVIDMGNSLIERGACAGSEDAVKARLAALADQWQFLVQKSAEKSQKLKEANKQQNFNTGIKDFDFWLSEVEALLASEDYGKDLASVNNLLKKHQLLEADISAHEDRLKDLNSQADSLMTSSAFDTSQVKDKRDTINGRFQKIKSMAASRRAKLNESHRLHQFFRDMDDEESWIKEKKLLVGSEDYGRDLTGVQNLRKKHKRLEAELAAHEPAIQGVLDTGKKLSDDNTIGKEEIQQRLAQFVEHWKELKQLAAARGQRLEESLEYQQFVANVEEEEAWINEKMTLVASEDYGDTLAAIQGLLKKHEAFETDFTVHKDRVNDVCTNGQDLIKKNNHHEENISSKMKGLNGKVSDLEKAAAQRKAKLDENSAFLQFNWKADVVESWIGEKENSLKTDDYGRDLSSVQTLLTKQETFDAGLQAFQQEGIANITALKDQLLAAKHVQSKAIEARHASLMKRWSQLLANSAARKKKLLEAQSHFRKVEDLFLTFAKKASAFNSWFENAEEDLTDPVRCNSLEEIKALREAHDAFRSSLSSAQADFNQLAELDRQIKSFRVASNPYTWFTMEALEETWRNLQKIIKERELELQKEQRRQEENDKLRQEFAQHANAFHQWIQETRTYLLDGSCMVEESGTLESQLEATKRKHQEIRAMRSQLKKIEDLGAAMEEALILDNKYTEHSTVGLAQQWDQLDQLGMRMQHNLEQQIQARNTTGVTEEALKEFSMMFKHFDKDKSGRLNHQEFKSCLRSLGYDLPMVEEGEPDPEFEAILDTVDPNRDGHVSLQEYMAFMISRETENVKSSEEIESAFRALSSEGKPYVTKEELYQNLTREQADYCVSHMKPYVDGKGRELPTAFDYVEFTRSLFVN

[8] = target: PF-7802-labelled proteins in ARPE-19 cells (Homo sapiens, UniProt P62263); settings: protein RPS14 40S ribosomal protein S14, P62263
[9] = target: T4, PF-7802-labelled proteins in ARPE-19 cells (Homo sapiens, UniProt P52597); settings: for Median SILAC Ratio (Heavy/Light): protein HNRNPF Heterogeneous nuclear ribonucleoprotein F (P52597), one column per replicate
T4 sequence (P52597 1-415): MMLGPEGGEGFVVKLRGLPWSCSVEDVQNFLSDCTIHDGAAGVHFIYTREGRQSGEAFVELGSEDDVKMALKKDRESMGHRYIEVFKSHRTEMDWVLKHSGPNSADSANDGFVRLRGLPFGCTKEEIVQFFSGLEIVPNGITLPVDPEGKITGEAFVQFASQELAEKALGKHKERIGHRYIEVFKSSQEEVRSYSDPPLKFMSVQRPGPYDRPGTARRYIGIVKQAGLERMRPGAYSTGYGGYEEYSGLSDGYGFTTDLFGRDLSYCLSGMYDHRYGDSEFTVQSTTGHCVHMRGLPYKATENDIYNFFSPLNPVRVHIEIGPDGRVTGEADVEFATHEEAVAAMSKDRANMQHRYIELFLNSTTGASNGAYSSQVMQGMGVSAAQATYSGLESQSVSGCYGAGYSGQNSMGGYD

[10] = target: PF-7802-labelled proteins in ARPE-19 cells (Homo sapiens, UniProt P35580); settings: for Median SILAC Ratio (Heavy/Light): protein MYH10 Myosin-10 (P35580), replicates in separate columns
Sequence of UniProt P35580 (P35580 whole entry): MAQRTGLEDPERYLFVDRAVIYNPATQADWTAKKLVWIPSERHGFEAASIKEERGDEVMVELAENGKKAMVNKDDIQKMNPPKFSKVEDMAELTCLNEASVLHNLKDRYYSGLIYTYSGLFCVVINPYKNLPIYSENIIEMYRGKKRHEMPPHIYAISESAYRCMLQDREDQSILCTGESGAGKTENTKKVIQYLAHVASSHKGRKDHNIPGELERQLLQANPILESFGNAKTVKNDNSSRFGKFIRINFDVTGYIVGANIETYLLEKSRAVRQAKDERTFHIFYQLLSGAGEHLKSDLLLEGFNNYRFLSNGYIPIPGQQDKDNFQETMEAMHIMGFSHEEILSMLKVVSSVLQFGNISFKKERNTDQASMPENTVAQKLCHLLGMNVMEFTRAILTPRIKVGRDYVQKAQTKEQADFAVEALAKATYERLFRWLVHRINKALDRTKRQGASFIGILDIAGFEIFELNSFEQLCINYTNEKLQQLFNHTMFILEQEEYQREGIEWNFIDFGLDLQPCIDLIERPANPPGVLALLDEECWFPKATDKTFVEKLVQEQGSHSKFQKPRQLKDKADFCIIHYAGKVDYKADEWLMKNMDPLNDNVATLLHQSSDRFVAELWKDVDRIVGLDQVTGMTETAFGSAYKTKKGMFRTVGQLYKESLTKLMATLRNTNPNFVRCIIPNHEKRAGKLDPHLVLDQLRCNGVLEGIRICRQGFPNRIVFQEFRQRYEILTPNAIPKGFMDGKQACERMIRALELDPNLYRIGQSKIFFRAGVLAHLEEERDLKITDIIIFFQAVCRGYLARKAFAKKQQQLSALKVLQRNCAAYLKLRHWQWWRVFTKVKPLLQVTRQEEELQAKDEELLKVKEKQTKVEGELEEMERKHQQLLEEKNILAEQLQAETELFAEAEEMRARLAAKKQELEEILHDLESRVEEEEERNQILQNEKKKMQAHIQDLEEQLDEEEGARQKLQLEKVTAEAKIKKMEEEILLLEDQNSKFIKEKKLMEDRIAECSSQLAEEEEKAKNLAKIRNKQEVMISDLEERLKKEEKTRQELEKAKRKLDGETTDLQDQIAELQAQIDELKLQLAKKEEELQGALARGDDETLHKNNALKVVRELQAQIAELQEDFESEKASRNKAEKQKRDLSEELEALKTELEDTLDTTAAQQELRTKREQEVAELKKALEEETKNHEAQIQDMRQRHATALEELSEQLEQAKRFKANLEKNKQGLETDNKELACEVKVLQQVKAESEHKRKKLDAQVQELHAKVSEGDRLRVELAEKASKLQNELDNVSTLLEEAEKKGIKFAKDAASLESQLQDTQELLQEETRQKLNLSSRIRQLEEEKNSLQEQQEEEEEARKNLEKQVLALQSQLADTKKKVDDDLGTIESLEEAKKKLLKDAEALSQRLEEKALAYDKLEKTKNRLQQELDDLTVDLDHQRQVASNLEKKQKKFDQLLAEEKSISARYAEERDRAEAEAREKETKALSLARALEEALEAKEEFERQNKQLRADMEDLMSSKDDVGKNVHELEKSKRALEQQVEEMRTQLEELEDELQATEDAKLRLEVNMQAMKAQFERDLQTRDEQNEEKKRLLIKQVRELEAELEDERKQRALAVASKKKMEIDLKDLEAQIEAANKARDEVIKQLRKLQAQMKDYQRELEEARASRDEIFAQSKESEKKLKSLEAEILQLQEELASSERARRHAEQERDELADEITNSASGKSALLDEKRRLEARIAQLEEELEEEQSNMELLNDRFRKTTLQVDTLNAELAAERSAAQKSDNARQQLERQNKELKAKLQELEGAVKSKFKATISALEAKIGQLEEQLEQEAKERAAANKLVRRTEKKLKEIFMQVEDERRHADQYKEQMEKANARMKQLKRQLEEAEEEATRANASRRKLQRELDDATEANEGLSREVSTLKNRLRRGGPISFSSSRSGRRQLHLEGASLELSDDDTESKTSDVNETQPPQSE

| Structure (SMILES) | SILAC ratio (DMSO/CP-108671) ([1]; P11166 SLC2A1 Solute carrier family 2, facilitated glucose transporter member 1) | Median SILAC Ratio (Heavy/Light) [1] | Median SILAC Ratio (Heavy/Light) [2] | SILAC ratio (DMSO/CP-108671) ([3]; P24752 ACAT1 Acetyl-CoA acetyltransferase, mitochondrial) | Median SILAC Ratio (Heavy/Light) [3] | Median SILAC Ratio (Heavy/Light) [4] | SILAC ratio (DMSO/CP-108671) ([5]; Q99798 ACO2 Aconitate hydratase, mitochondrial) | Median SILAC Ratio (Heavy/Light) [5] | Median SILAC Ratio (Heavy/Light) [6] | Median SILAC Ratio (Heavy/Light) [7] | Median SILAC Ratio (Heavy/Light) [8] | SILAC ratio (DMSO/CP-108671) ([9]; P52597 HNRNPF Heterogeneous nuclear ribonucleoprotein F) | Median SILAC Ratio (Heavy/Light) [9] | SILAC ratio (DMSO/CP-108671) ([10]; P35580 MYH10 Myosin-10) | Median SILAC Ratio (Heavy/Light) [10] |
| --- | --- | --- | --- | --- | --- | --- | --- | --- | --- | --- | --- | --- | --- | --- | --- |
| CNC1CCN(C(=O)C[C@@H](Cc2ccccc2)C(=O)N[C@@H](CSC)C(=O)N[C@@H](CC2CCCCC2)[C@@H](O)C(=O)OC(C)C)CC1 [CP-108671, reference compound] | 0.87 | 1.156 | 0.3005 | 1.04 | 0.9603 | 1.234 | 0.87 | 1.146 | 1.1096 | 1.201 | 0.9556 | 0.91 | 1.094 | 0.58 | 1.722 |
| Cc1cc([C@H]2C[C@H]3[C@@H](C)SC(N)=N[C@@]3(c3ccc(F)cc3F)CO2)on1 [PF-9283] |  | 1.381 and 2.28 and 2.213 | 1.2091 |  | 1.113 | 1.453 |  | 1.292 | 1.126 | 1.332 | 1.2146 and 0.9277 |  | 1.29 |  | 1.688 |
